# Reference: the RNAGym collection of RNA variant scans (doi:10.7554/elife.90254)
# The source gives no read counts; variants with many changes may rest on few reads.
# B1: LINE1-mini (parent)
# chain: GGCAGAGCUCAACACAGCGUGGCAAAGUGGCUGUGGCUAGACUGCC
# Variants of: B1
# Assay: self-cleavage, relative activity (ratio to wild type); higher = more cleavage; in vitro, sequencing; the parent is a self-cleaving ribozyme
row,Variant,self-cleavage
1,C18U C23U C42U C45A,0.06
2,G2C C8G G22A U43A,0.01
3,U9C G17U A25U,0.03
4,C8G A12G G21C G35U,0.08
5,C8G G29C C31U,0.01
6,A4C A14C G19A,0.08
7,G1C A11U G35A,0
8,G2U C3A G30U G35A,0.07
9,A25C A26G U32C,0.03
10,A16G G19A C23U,0.35
11,G2C C3U C31A U34G C37A,0.02
12,C13A G22C G27U G40A A41G,0.04
13,C8A A11C G33A,0.02
14,G1A A4C A11U C13A C23A G36U,0.01
15,G19C C31U U32C,0.1
16,G5A A6U G35U,0.11
17,C3G C13U A24G G27U C31G U32A U43A G44U,0.03
18,G19A G22U G40U,0.1
19,A24U C31U G33C,0.01
20,A6G C8G A16C,0
21,G2U U9G A12G G27U,0.01
22,U9G A12U G44A,0.07
23,A4U C8U C10A U28C G29U,0.43
24,G7C A11U A14C C37A,0.04

row,Variant,self-cleavage
1,C15A U32C G36U C37A,0.02
2,U20G A24U G27A,0.35
3,G19C A26U G30C U34G,0.04
4,G1A C3G C18A C37A,0.47
5,A11C C31A U32A G40U,0.01
6,G2A C13A C42A,0.17
7,C18A G27U A39G,0.17
8,G21A G27C U28C G33C G40U,0.01
9,U9G G19C A41U,0.04
10,C10G A12U G40C,0.01
11,A6U C10U G17A A39C,0.06
12,G2U C8U A14C A16C U34G G40U U43C,0.02
13,G2C G27U C31A U43A,0.05
14,G5C U20G G35A,0.09
15,G1U A6G U34G G36A,0.17
16,G5U G21A A26G,0.19
17,G19U U20A C23U,2.27
18,C10U G27U G29A G36U,0.01
19,G21C U32C G36C G40C,0.04
20,G17C G30U U43C,0.02
21,G30A U38A C46G,0.73
22,U20G G22U C23G G40A C42G,0.14
23,C8A A26U U32G,0.18
24,G22C A25U A39G,0.08

row,Variant,self-cleavage
1,C8A U28C U38G,0.01
2,A25C G35U C42A,0.03
3,C8G C13U G17A G19C G36A,0.07
4,G5C A6C C10A G22U,0.01
5,A4G C10G C13U A16G U28C,0
6,A6C U20G A25U G29A G30U,0.53
7,C15U G22A G29C C31G C42A,0
8,A24C G33A C46A,0.1
9,C13A G17C G21A,0.01
10,G2C C8U A12G,0.19
11,G1C U9A G19A C46A,0.1
12,C8U C15A A16G C18U G44C,0.02
13,G27C U32A G35C U43G G44U C45A,0.02
14,C15U G22U A24G G30U,0.35
15,G5U C10A G17A G30U G36C C45G,0
16,G7A A11C C23A,0.03
17,U9A G21U C31G U32A G44A,0.01
18,C31U G35A C45U,0.03
19,A14G G19U U20A,2.27
20,C10G A25U U28A C37G A39C,0.02
21,G7A G17A G22C G29A,0.11
22,G19U G21U C37G U43A,0.01
23,A14C G19C A39G,0
24,G29U G30U C46A,0.98

row,Variant,self-cleavage
1,A6G C8U A41C,0.25
2,G5C A25C A41C G44U,0.05
3,G17U G19U G27A,0.05
4,G1A U20G G29C G36U,0.02
5,C3U G17C G19C G36C,0.11
6,C3A G7A C23A G29U U43C,0.06
7,U9A G17C G29A A39U G40A,0.14
8,G2U C10A G30A U38A,0.02
9,G5U C37U C46U,0.02
10,G2C C3U C15U C37U,0.41
11,A14U C15A U28G G33C C37U,0.01
12,C13A U34C C42G,0.04
13,C10A A11U U34G A41G,0.04
14,G7C C23U C45U,0.28
15,A12U C18U A41U C46A,0.17
16,A14G A26U G40C C46U,0
17,G1U C3A C10A A14C A16C G30C G35U,0.03
18,C3U C13G C18A G30A U32A,0.04
19,U38C C42G C46U,0.08
20,G2C A12U A14G A16G C23A,0.02
21,G2A C18U C23U G27U C31U,0.03
22,G22A C31U G44C,0.04
23,G1U A11U A16G C23U,0.02
24,C10U A16C A39C C42A,0.02

row,Variant,self-cleavage
1,G5U G7U U9A U38C,0.18
2,C10A G17U C23A C37G,0
3,C18G C23U A25C A39U,0.12
4,C8U A12U A26U G30U,0.13
5,A4C C15U C31A U32G C37G,0.05
6,G2U A16U U20A G27A C37A U38C,0.01
7,A11U C18U C37U,0.01
8,C15A G19A G40C,0.03
9,A14C G19U C23A,0.12
10,C10A G27A U28C,0.01
11,G7A C13A U43C G44A,0.07
12,C8G C18A A25G G29A,0.02
13,A6G U20C C45G,0.03
14,G1C C15U U34A G36C G40U,0.01
15,G1C A14U G33U,0.04
16,G2U C13U U34A G44A,0.09
17,G2A G35A U43A,0.08
18,C3G A6G C18A C23U U34C G35A,0.02
19,G17A C23G U32G,0.04
20,C3A G5U C13A C37G,0.59
21,G2A C18G G29U,0.07
22,U9G C15U C46A,0.01
23,C18G G22C C42G,0.06
24,C8U A12G A14C U20A U43C G44C,0.06

row,Variant,self-cleavage
1,C3U G22A G36A,0.13
2,U20G U34A G40C,0.04
3,G2U G5U G35U A39C,0.01
4,A6C G29U C37A C42U,0.03
5,G2C C23U U43A,0.04
6,A14U C23G C42A,0.1
7,C8A C18A A39G,0.11
8,A16G A25U G27A,0.35
9,U9G A12G A26G A41G,0.01
10,G2U C8G G21U G22C C46U,0.03
11,C8G C15A A24C G35A,0.04
12,G2U C15A G30A A39C,0.02
13,A6G U9A G44U,0.51
14,A14C C15U G36C,0.02
15,G1U G7C C37U A39C G44U,0.16
16,C10A G19U A25G U28C G36A,0.01
17,U9G G17U G19A C46G,0.01
18,C15G U34A C42A,0.02
19,G1C G5U G35A C45U,0
20,A4U G19A G44C,0.62
21,A4C C10A G22U,0.01
22,C10A G22A U32C,0.02
23,G1C A6G C8A C42G,0.03
24,G1C G22A C37U,0

row,Variant,self-cleavage
1,G17U G21A A41U,0.3
2,A14U C15U G22A G30C G36C C37U C42U,0.04
3,G2U A26G U28G G33A A39C,0.01
4,C3U G5C G21A C31A,0
5,C18U G29A U38G,0.02
6,G1A G2U A6C G19A U38C,0.02
7,C10A A14G G36U,0.01
8,A6G C15U G21A,0.07
9,A11G A26C U32G,0.02
10,G5U A6C A14G C18U A25G G33A U34A,0.01
11,C3U A24U C45A,0.13
12,G5C C13A G21U U28C,0.04
13,C8U A26G C42U,0.09
14,G2U G21U C31A U32C G36U,0.02
15,C13G U38C G40A,0.01
16,U9C C31U U32C,0
17,G2A A25C C37U,0.06
18,G19U G21A A25U A26U,2.68
19,A6G C8A G40U A41G,0.02
20,A4C G7U G30C G40A,0.05
21,G1U C23U A25C,1.73
22,G7U G36U A41G U43A,2.04
23,G21C G22U C23A C45G,0.83
